The campaign covered roughly 110,000 compounds. About 230 (0.21%) showed an effect of 50% or more. Some of the results follow.
Each compound was assayed against DPAP1 (Plasmodium falciparum, UniProt Q8IIJ9) (assay: primary screen, percent inhibition; read by cleavage of a fluorogenic dipeptide substrate; higher = more effect of the substance).
Parameters: species or system P. falciparum D10 trophozoite lysates; single well
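Note: 30 min substrate incubation versus DMSO and 10 µM JCP410 controls.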

Chain of DPAP1 (Q8IIJ9 whole entry, looked up): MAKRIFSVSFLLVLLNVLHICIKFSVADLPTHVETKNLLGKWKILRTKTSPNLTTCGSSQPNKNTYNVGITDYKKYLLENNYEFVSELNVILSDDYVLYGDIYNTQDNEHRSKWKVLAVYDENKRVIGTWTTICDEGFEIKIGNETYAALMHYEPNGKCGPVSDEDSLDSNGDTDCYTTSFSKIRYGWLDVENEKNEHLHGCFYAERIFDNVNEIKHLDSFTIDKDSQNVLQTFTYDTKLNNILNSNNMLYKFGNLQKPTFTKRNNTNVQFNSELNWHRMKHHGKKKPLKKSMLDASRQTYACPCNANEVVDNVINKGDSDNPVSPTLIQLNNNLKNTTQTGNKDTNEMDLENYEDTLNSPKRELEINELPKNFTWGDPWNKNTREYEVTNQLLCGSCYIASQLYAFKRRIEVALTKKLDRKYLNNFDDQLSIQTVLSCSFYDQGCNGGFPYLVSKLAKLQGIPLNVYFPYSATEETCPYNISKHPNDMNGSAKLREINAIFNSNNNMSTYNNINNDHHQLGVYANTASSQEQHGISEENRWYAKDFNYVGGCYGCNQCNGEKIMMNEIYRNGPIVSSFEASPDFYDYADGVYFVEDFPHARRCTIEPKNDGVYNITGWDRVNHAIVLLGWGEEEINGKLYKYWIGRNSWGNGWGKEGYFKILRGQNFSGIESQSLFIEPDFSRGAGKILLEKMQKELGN

| SMILES | % Inhibition @ 10 uM [%] |
| --- | --- |
| NC(=O)c1c(NC(=O)C2CC2)sc2c1CCCCCC2 | 5.39 |
| CN1C(=O)/C(=C\c2ccc(O)c(Br)c2)S/C1=N/c1ccccc1 | 9.72 |
| Cc1cc(C(F)(F)F)nc(NCCc2ccccc2)n1 | 6.66 |
| O=C(O)c1ccc2c(c1)C(=O)N(Cc1ccccc1)C2=O | 0.583 |
| c1ccc(N2CCN(Cc3ccsc3)CC2)cc1 | -5.5 |
| CCN(CC)CCCNC(=O)c1cc2nc(-c3ccccc3)cc(C(F)(F)F)n2n1 | -1.52 |
| COc1ccc(OC)c(CN2CCN(Cc3ccccc3Br)CC2)c1 | -8.37 |
| CC(=O)Nc1cccc2oc3ccccc3c12 | -4.16 |
| CCOc1cccc(OCC)c2c(C)[n+](CC3CCCO3)c(C)c1-2 (stereo not shown) | 2.35 |
| CCOC(=O)c1c(C)n(C)c2cc(Br)c3oc(O)nc3c12 | 0.847 |
| Cc1ccc(CC(=O)Nc2cc(C)on2)cc1 | 0.565 |
| CCOc1ccc(C2C=C(c3ccc(CC)cc3)Nc3nnnn32)cc1OC (stereo not shown) | 1.73 |
| COc1cc(N2CCCC2)c(OC)cc1/C=C1/NC(=O)N(c2cccc(Cl)c2)C1=O | -5.81 |
| c1ccc(CNc2ncnc3[nH]cnc23)cc1 | -4.27 |
| CCOc1ccc(-n2nc3ccc(NC(=O)c4ccc5c(c4)OCCO5)cc3n2)cc1 | 17.9 |
| COc1cccc(-c2nc(-c3ccccc3)no2)c1 | 4.57 |
| C=CCNc1cc(C)oc(=O)c1C(=O)CCC | 3 |
| CC(C)CC(=O)N1CCN(Cc2ccc(Cl)cc2)CC1 | 1.27 |
| Cc1ccc(CN(C(=O)c2oc3ccc(Cl)cc3c2C)C2CCS(=O)(=O)C2)o1 (stereo not shown) | 2.19 |
| COC(=O)Cn1cnc(=O)c(C#N)c1C | 4.08 |
| CC1CCCN(C(=O)Cc2noc3ccccc23)C1 (stereo not shown) | -0.205 |
| COc1ccc2[nH]cc(CCC(=O)O)c2c1 | -2.15 |
| COc1nc(-c2ccccc2)ccc1-c1noc(-c2ccccc2)n1 | -1.33 |
| COc1ccc2[nH]c3c(c2c1)CCNC31CCC(C(C)(C)C)CC1 (stereo not shown) | -1.85 |
| CS(=O)(=O)c1ncc(Cl)c(C(=O)N(Cc2ccc(Cl)cc2)C2CCS(=O)(=O)C2)n1 (stereo not shown) | -2.85 |

| SMILES | % Inhibition @ 10 uM [%] |
| --- | --- |
| CC1CC(C)CN(C(=O)CSc2ncccc2C(=O)O)C1 (stereo not shown) | -2.26 |
| Fc1ccc(N2CCN(Cc3cccc(C(F)(F)F)c3)CC2)cc1 | 1.55 |
| COCCCn1c(=N)c(C(=O)OC)cc2c(=O)n3cc(C)ccc3nc21 | -3.27 |
| COC(=O)c1cnn2c1NCN(Cc1ccc3c(c1)OCO3)C2 | 3.96 |
| CCOc1ccc(C2CC(=O)N3CN(CCc4ccccc4)CSC3=C2C#N)cc1 (stereo not shown) | 71.1 |
| O=C(CN1C(=O)S/C(=C/c2cccn2-c2ccc(O)cc2)C1=O)N1CCN(c2ccccc2)CC1 | 2.22 |
| COc1ccc(C(=O)Nc2nc3nc(C)cc(C)n3n2)cc1 | 0.401 |
| O=C(c1ccccc1)C12CN3CN(CN(C3)C1)C2 | -6.65 |
| O=C(CCn1nc(-c2ccccc2)ccc1=O)NC1CCCCC1 | -7.35 |
| O=C(CCCc1nnc2n(Cc3ccccc3)c(=O)c3ccccc3n12)NC1CCCCC1 | -1.71 |
| CC(=O)Nc1nc2ccccc2n1CCN1CCCC1 | -5.11 |
| O=C(c1ccncc1)N1CCN(Cc2cccc(Cl)c2)CC1 | -5.66 |
| O=c1[nH]c(/C=C/c2ccccc2Cl)c([N+](=O)[O-])c(=O)[nH]1 | -4.58 |
| COC(=O)c1cc(S(=O)(=O)N2CCCN(Cc3ccc(F)cc3)C2)c[nH]1 | 6.31 |
| CCOC(=O)c1c(NC(=O)c2cc(OC)c(OC)c(OC)c2Br)sc2c1CCCC2 | 5.23 |
| COc1ccc(NC(=O)C(Cc2cc(C)cc(C)c2)C(C)C(=O)O)cc1 (stereo not shown) | 1.92 |
| O=c1c2c(-c3ccccc3)csc2nc2c3ccccc3c(N3CCN(CCO)CC3)nn12 | 0.323 |
| Cn1cc(S(=O)(=O)N2CCOCC2)cc1C(=O)NCc1ccc(Cl)cc1 | -4.05 |
| COc1ccc2nc3sc(C(=O)NCc4ccc5c(c4)OCO5)cc3cc2c1 | -1.83 |
| O=C1NC(=O)N(c2ccccc2)C(=O)/C1=C\Nc1ccccc1C(=O)O | -4.92 |
| COc1ccc(CN2CCN(C3CCCCC3C)CC2)c(OC)c1OC (stereo not shown) | 0.131 |
| CCS(=O)(=O)N1CCCC(C(=O)NC2CCCC(C)C2C)C1 (stereo not shown) | -1.79 |
| CCCCn1c2ccccc2c2nnc(S)nc21 | 36.5 |
| Cc1ccccc1Oc1cc(-n2nc(C)c(C#N)c2N)ncn1 | -0.68 |
| CCN1/C(=c2/s/c(=C3/C(=O)N(c4ccccc4)N=C3C)n(CC)c2=O)C=Cc2ccccc21 | 1.4 |

| SMILES | % Inhibition @ 10 uM [%] |
| --- | --- |
| OCC1CCCCN1C1CCN(CCc2ccccc2)CC1 (stereo not shown) | 0.217 |
| O=C(NCC1CCCO1)c1c(NC(=O)c2cccc3ccccc23)sc2c1CCCC2 (stereo not shown) | -1.52 |
| COC(=O)c1ccc(/C(O)=C(\C#N)c2nc3ccccc3s2)cc1 | 1.39 |
| CCOCCCNC(=O)c1cc(C)nn1-c1ccccc1 | -1.89 |
| CCOC(=O)N1CCN(S(=O)(=O)c2ccc(C)cc2)C1 | -3.69 |
| CN(C)c1nc(N)nc(Cn2nnc(-c3cccc(C(F)(F)F)c3)n2)n1 | -2.19 |
| O=C(NCCCc1nc2ccccc2n1Cc1cccc2ccccc12)c1ccco1 | -1.22 |
| CC(=O)Nc1ncnc2[nH]cnc12 | 1.12 |
| Cc1noc(NS(=O)(=O)c2ccc(NC(=O)c3c(-c4ccccc4Cl)noc3C)cc2)c1C | -5.6 |
| O=C(Cn1ncc2c3ccccc3n(Cc3ccccc3)c2c1=O)NCc1cccc(Cl)c1 | 0.137 |
| Cc1ccc(N2C(=O)c3oc4ccccc4c(=O)c3C2c2ccc(O)cc2)nc1 (stereo not shown) | -5.51 |
| CN(C1CCCCC1)S(=O)(=O)c1ccc2nc(O)cc(C(=O)NCc3ccccc3)c2c1 | 3.89 |
| COc1ccc(C(=O)NCC2(c3ccc(OC)c(OC)c3)CCCC2)cc1OC | -10.2 |
| CCN1CCN(C(=O)Cn2c(=S)[nH]c3c([nH]c4ccc(OC)cc43)c2=O)CC1 | -0.495 |
| CCn1nc(C)c(CCNC(=O)c2cc3c(=O)n(Cc4cccnc4)ccc3nc2C)c1C | -5.91 |
| CCOC(=O)c1cc2c(=O)n3ccccc3nc2n(C2CCCCC2)c1=N | 0.0645 |
| CCOC(=O)c1cnc(SCc2nc(-c3ccccc3C)oc2C)nc1N | -2.3 |
| CC(=O)NS(=O)(=O)c1ccc(NC(=O)C2C3C=CC(C3)C2C(=O)O)cc1 (stereo not shown) | -7.09 |
| CC(C)=CCCC12CCC(CO)(CO1)C(C)C2 (stereo not shown) | 5.06 |
| Cc1nn(Cc2nc(-c3ccc4c(c3)OCO4)no2)c(C)c1Br | 2.62 |
| CCOC(=O)c1sc(NC(=O)c2ccccc2C)c(C(=O)OCC)c1C | -5.63 |
| CCN(CC)CCN(C(=O)c1ccco1)c1nc2cc3c(cc2s1)OCO3 | 2.25 |
| Cc1ccccc1CNC(=O)Cn1ncc2c(Cl)cccc21 | -2.88 |
| CC(C)(C)c1ccc(C(=O)Nc2nonc2-c2nc3ccccc3[nH]2)cc1 | 0.596 |
| CCOc1ccc(-c2cc(C(=O)NCCc3sccc3C)[nH]n2)cc1 | 5.77 |

| SMILES | % Inhibition @ 10 uM [%] |
| --- | --- |
| O=C(O)CCCC(=O)Nc1ccc(OCc2nc3ccccc3s2)cc1 | 1.03 |
| COC(=O)c1sccc1NC(C)=O | 39.4 |
| O=C(O)c1c2c(nc3ccccc13)CCCC2 | 1.7 |
| CCOC(=O)c1c(S(=O)(=O)N(C)Cc2ccccc2)c(C)n(C)c1C | -4.99 |
| COc1cc(OC)cc(C2C(C#N)=C(N)Oc3[nH]nc(-c4cccnc4)c32)c1 (stereo not shown) | -0.994 |
| COc1ccc(OC)c(N(CC(=O)Nc2cccc(Br)c2)S(C)(=O)=O)c1 | -1.43 |
| CC1(C)CC(NS(=O)(=O)c2ccc3nc(O)sc3c2)CC(C)(C)N1 | -1.24 |
| Cc1cc(-c2ccc(NC(=O)CCC(=O)O)c(C)c2)ccc1NC(=O)CCC(=O)O | -1.29 |
| Clc1ccc(-c2nn3c(C4COc5ccccc5O4)nnc3s2)cc1 (stereo not shown) | 53.7 |
| COc1cc(NC(C)CCCN)c2ncccc2c1Oc1ccccc1 (stereo not shown) | 5.44 |
| CSc1[nH]c(-c2ccccc2)nc1S(=O)(=O)c1ccccc1 | 19.3 |
| Cc1ccc(-c2c(C(=O)O)n(CC(C)C)c(=O)c3ccccc23)cc1C | 5.13 |
| CC(C)NC(=O)N1CC(c2ccccc2)C(c2ccc(Cl)cc2)=N1 (stereo not shown) | -4.15 |
| CCOc1ccc(N(CC(=O)NC)S(=O)(=O)c2ccc(C)cc2)cc1 | 3.06 |
| CC1=CC(=O)C2(C)C3CCC4CC(=O)CCC4(C)C3=CCC2S1(=O)=O (stereo not shown) | -1.69 |
| CC(C)CC(C(=O)NCC#N)c1cccc(-c2ccc(-c3csc(N)n3)cc2)c1 (stereo not shown) | 0.173 |
| COc1cc(CNc2ccc(F)c(Cl)c2)cc(OC)c1 | 2.1 |
| COc1ccc(C(=O)[C@H]2[C@H](c3ccc(SC)cc3)C(C#N)(C#N)[C@@H]3c4ccccc4C=CN32)cc1 | -0.597 |
| CC1CCN(c2nc3c(-c4cccc(C(F)(F)F)c4)nnn3c3ccccc23)CC1 | -8.42 |
| O=C(c1cc2c(O)nc3ccccc3c2s1)N1CCN(Cc2ccc3c(c2)OCO3)CC1 | 1.23 |
| O=C(O)c1cnccc1C(=O)NCCc1ccccc1 | -2.67 |
| COc1ccc(S(=O)(=O)Nc2cc(C)ccc2OC)cc1 | -4.67 |
| Cc1ccc(OCCCn2nnc3sc4c(c3c2=O)CCC(C)C4)cc1 (stereo not shown) | 4 |
| CCCN1CCN(C(=O)CS(=O)(=O)Cc2nc(-c3cccc(OC)c3)oc2C)CC1 | -0.138 |
| O=C1c2[nH]nc(-c3ccccc3O)c2C(c2cccc(O)c2)N1CC1CCCO1 (stereo not shown) | -3.12 |
